# Whole data set: some 110,000 compounds, median “z-score” near -0.1, cut for the highest 2% near 2. The list shows a part of the results.
# Biological target: Metabotropic glutamate receptor 8 (Rattus norvegicus) (UniProt P70579)
# Test: mGluR8 Gi/Go-coupled signaling modulation – cell-based, rat, thallium flux, HTS, primary screen (AID 488969)
# Details: HEK293 rat mGluR8, GIRK (G protein-gated inwardly rectifying potassium channel) thallium flux, FluoZin2; at 10 µM; stronger effect = higher value; submaximal glutamate (EC20) added with thallium
# Sequence of UniProt P70579 (P70579 whole entry, looked up): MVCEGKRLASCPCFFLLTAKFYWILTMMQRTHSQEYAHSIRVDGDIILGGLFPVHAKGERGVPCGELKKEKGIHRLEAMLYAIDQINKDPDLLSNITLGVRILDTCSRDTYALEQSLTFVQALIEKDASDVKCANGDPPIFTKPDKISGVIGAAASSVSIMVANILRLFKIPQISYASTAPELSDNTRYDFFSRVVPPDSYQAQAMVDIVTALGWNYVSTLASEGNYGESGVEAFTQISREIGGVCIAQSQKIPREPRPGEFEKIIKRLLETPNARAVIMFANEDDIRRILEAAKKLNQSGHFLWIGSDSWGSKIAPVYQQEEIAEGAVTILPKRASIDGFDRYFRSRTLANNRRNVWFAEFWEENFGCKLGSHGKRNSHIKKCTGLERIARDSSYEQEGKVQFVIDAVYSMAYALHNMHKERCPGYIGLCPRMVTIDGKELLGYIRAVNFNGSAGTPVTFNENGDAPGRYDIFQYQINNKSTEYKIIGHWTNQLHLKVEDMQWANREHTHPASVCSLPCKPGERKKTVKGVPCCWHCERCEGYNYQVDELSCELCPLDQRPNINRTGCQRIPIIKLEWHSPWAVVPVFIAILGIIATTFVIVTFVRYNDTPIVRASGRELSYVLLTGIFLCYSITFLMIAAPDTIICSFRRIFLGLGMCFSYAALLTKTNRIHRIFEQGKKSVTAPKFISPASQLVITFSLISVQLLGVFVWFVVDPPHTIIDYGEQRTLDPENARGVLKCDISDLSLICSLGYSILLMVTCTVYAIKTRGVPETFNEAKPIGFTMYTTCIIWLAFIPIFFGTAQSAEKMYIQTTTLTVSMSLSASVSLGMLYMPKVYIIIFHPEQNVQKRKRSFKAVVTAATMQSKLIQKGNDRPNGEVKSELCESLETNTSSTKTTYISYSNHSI
row,Structure (SMILES),z-score
1,COc1ccc(CCNc2cc(C)nc3c(-c4ccc(Cl)cc4)cnn23)cc1OC,-0.051
2,COc1ccc(-c2nc3c(c4nnc(SC(C)C(=O)Nc5ccccc5)n24)COC(C)(C)C3)cc1 (stereo not given),-0.351
3,O=C(CCn1ccc([N+](=O)[O-])n1)NC1CCCCCC1,0.235
4,O=C1CCCC2=C1C(c1ccc(Cl)cc1)N1C(=O)CCSC1=N2 (stereo not given),-0.142
5,C=C(C)Cn1c(CCNC(=O)CC)nc2ccccc21,-0.285
6,c1ccc(CCNc2nc(-c3cccnc3)cs2)cc1,-0.023
7,COc1ccc(N2CC(C(=O)OCC(=O)NCc3ccccc3)CC2=O)cc1 (stereo not given),-0.103
8,Cc1ccc(-c2c3c(=O)n(C)c(=O)n(C)c3cn2CCCN2CCOCC2)cc1,0.228
9,Cc1ccc(C2(C)NC(=O)N(CC(=O)NCCC3=CCCCC3)C2=O)cc1 (stereo not given),-0.168
10,Cn1c(SCC(=O)Nc2cc([N+](=O)[O-])ccc2F)nnc1C(F)(F)F,0.166
11,O=C(COc1ccc(F)cc1)OCCN1CCOCC1,-0.127
12,O=C(NCCOC(=O)C1COc2ccccc2O1)c1cccnc1 (stereo not given),1.24
13,CC1(C(=O)OCC(=O)c2c[nH]c3ccccc23)CC1(Cl)Cl (stereo not given),-0.259
14,CCc1cc2c(=O)c(-c3nc4ccccc4n3C)c(COCC(=O)O)oc2cc1OC(=O)C(C)(C)C,0.313
15,c1ccc(Cn2nnc3c(N4CCc5ccccc54)ncnc32)cc1,-0.0353
16,CCOC(=O)N1CCN(C(=O)COc2ccc3c(c2)C(=O)CC2(CCN(C(C)=O)CC2)O3)CC1,0.657
17,Cc1ccc(C(=O)NNc2cc(=O)n(C)c(=O)n2C)cc1C,-0.15
18,Cc1noc(C)c1COc1cccc(C(=O)OC(C)C(=O)Nc2ccc3c(c2)OCO3)c1 (stereo not given),0.216
19,c1ccc(-c2nnc(SCc3nc4ccccc4[nH]3)o2)cc1,-0.0645
20,CCC(c1nnnn1CC1CCCO1)N(CCN1CCOCC1)Cc1cc2cc(C)ccc2[nH]c1=O (stereo not given),-0.902
21,COc1ccc(C2C(C#N)=C(C)NC3=C2C(=O)CC(C)(C)C3)cc1 (stereo not given),0.28
22,Cc1ccccc1N1CC(C(=O)Nc2nnc(SCC(=O)Nc3nccs3)s2)CC1=O (stereo not given),-0.248
23,O=C(OCc1cccc2ccccc12)c1ccc2c(=O)[nH]c(CN3CCOCC3)nc2c1,-0.0979
24,CC(=O)C1=C(O)C(=O)N(c2nnn(C)n2)C1c1cccs1 (stereo not given),0.175
25,O=C(Nc1ccc(S(=O)(=O)N2CCOCC2)cc1)c1ccc(Br)o1,-0.545
26,CC(=O)Nc1ccc(NC(=O)c2ccc(NS(=O)(=O)c3cc(C(C)(C)C)cc(C)c3C)cc2)cc1,-0.0167
27,N#Cc1nc(-c2cccs2)oc1NCCc1ccccc1,-1.55
28,O=C(N/N=C\c1ccc(Cl)cc1Cl)c1sccc1-n1cccc1,-0.203

row,Structure (SMILES),z-score
1,Cc1cc(C)c2c(c1)NC(=O)C2(O)CC(=O)c1cccs1 (stereo not given),-0.0381
2,COc1cc(C(=S)N2CCCCC2)ccc1O,0.0785
3,N=C1N(/N=C/c2ccccc2)C(=Nc2ccccc2)C(=S)N1c1ccccc1,1.02
4,CCOc1ccccc1N(CC(=O)O)S(=O)(=O)c1ccccc1,-0.8
5,CN(C)CCOc1ccccc1-c1ccccc1,0.521
6,CCN(CC)CCOC(=O)c1ccc(NC(=O)C2(c3ccccc3)CCCC2)cc1,0.225
7,CN(C)C(=O)COc1ccc2cc(-c3ccccc3)c(=O)oc2c1,2.32
8,CCCCc1c(C)c(C#N)c2[nH]c3ccccc3n2c1=O,0.124
9,CC1=C(C(=O)OC(C)C)C(c2cccs2)C(C(=O)OC(C)C)=C(C)N1,-0.281
10,CCN(CC)S(=O)(=O)c1ccc(NC(=O)CSc2ncnc3ccccc23)cc1,-0.296
11,CCN(CC)c1ccc(/C=N/N2CCOCC2)cc1,-0.0852
12,O=C(c1cc([N+](=O)[O-])ccc1N1CCCCC1)N1CCc2ccccc21,-1.08
13,O=C(CSc1nc2[nH]ncc2c(=O)[nH]1)NCc1ccc(F)cc1,-0.456
14,N#Cc1ccc(-c2cccnc2)nc1SCc1ccc(Cl)cc1Cl,0.0707
15,Cc1nc(S/C(=C/c2ccc(-c3ccc(Cl)cc3)o2)C(=O)O)n[nH]1,-0.557
16,COc1cc(OC)cc(C(=O)OCc2cc3ccccc3[nH]c2=O)c1,0.455
17,CCOC(=S)N/C(=N\S(=O)(=O)c1ccccc1)c1ccccc1,0.911
18,CCN(CC)CCNc1nc(-c2ccccc2)c2c(c1C#N)CC(C)(C)OC2,1.1
19,CCC(c1nnnn1Cc1ccccc1)N1CCN(C(=O)c2ccco2)CC1 (stereo not given),-0.92
20,Cc1nnc(NCCc2ccccc2)n(N)c1=O,0.495
21,O=C(c1c(F)cccc1F)N(Cc1ccccn1)C1CC1,-0.179
22,O=C(NC1CC1)c1cccc(Nc2ccc(-c3ccc4c(c3)OCCO4)nn2)c1,-1.81
23,CCOC(=O)CCCc1c[nH]c2ccccc12,-0.315
24,O=C(NC12CC3CC(CC(C3)C1)C2)c1ccc(-c2ccc(Br)cc2)o1,0.125
25,COc1ccc(OC)c(NS(=O)(=O)c2cc(OC)ccc2OC)c1,-0.0402
26,O=S(=O)(c1ccc(S(=O)(=O)N2CCN3CCCC3C2)cc1)N1CCCC1 (stereo not given),0.676
27,C=CCn1c(N)cc(=O)nc1SCC(=O)NC(C)c1ccccc1 (stereo not given),-0.047
